Reference: the RNAGym collection of RNA variant scans (doi:10.7554/elife.90254)
Read counts are not given, so values of variants with three or more changes are uncertain.

B1: OR4K15 (parent)
chain: GUUAACGGUCAUAGGCCAUGGAAACUAGGAGCACCAUUUCGCUGCCAGUGAAGAAAUGAACAAAGAAAAUCUGGGCCAGGCAGGCAUCAAAAGAAAUAGUCUUGCGCUCAACCAGAAAGUCUGUAAUCAUUUUAAGGGUA

Variants of: B1
Assay: self-cleavage, relative activity (ratio to wild type); higher = more cleavage; in vitro, sequencing; the parent is a self-cleaving ribozyme

Row | Variant | self-cleavage
1 | U38C A129G G137U | 1.09
2 | A36U A52G A92G C113U U139C | 0.07
3 | U2C U38C A68G G75A A110G | 0.03
4 | A64U A89U A126U | 0.78
5 | C25G A67G U100A G136U | 0.97
6 | G7U U37C U87A | 1.62
7 | U26A A62G A94C A129U | 0.22
8 | A22G A60G A68C | 0.29
9 | A52U A68G A110G | 0.1
10 | A55G A89G A95G A111G | 0
11 | A78U A94G A116G | 0.16
12 | A86G A89G U127C | 0.19
13 | A23G A66U U87C | 1.02
14 | U43C A69G A91G A92G A96G | 0.52
15 | A27G U70C A114C | 0.04
16 | A52U A64G A110U | 0.44
17 | A33G A89U U102C | 1.3
18 | A24G A33G U49A U70C | 0.49
19 | A22G A24G A90G U127A | 0.29
20 | U26C A92G A118U | 0.81
21 | A51U A63U C76U C107G A114U | 0.01
22 | A30G A36U U103C | 0.46
23 | A62U A68G U100C | 1.57

Row | Variant | self-cleavage
24 | A91G U132C A134G | 0.5
25 | A24G A56G U103A | 0.37
26 | A23G A91G U132C | 0.81
27 | A18G A55G U87A | 0.2
28 | C35A A56G A78U U103G C112U A117G U130C | 0
29 | G1U U2A A59G U72A U127A | 0.47
30 | A23G A89G A126U U127C | 0.51
31 | U19A A86G A98G | 0.41
32 | U19A A64U A69G U132C | 0.38
33 | A94G A110G U120A | 0.27
34 | A36G G75U A78U U102C | 0.1
35 | A30G U37C A86G | 0.94
36 | U49G U100C U103A | 1.63
37 | A33G A59U A67G | 0.56
38 | A82U U87C A90U A111G | 0.02
39 | C17A U70C A89U | 0.27
40 | U9A U37C A59U A96G | 1.12
41 | G14A A59C A62G | 0.49
42 | U57C A67G U130C | 0.68
43 | U2C A52U U122C | 0.63
44 | A94U A111G A140U | 0.02
45 | U2A A22G A30U A90G | 1.03
46 | A18C A52G U70C A95G U103A | 0.1

Row | Variant | self-cleavage
47 | A30G A89U U122C | 1.3
48 | U2C U49C A64G A67G U130C | 0.29
49 | U26C U57C A82U A96G U124C | 0.19
50 | A54G A82G C107U | 0.02
51 | U49C A60G A117G U122C | 0.75
52 | A51G A96G U120C | 0.95
53 | U26C U38A U43A G50C A116G | 1.01
54 | U39G A52G A94U U108C | 0.01
55 | U19C A23G A55G G73U U97C | 0.16
56 | A22U A92G G99A | 0.48
57 | A56U A68G A111U A126G | 0
58 | U19C U26C A114G | 0.21
59 | A23G A69C G75U A117G | 0.14
60 | U43C U102A A114G | 0.16
61 | U38C A62U A68G | 0.95
62 | A11G U43C A67G A117G | 1.1
63 | U26C A68G A95G A117G | 2.1
64 | U2A A13U C112U U132C | 0.02
65 | U2A A52G A126G | 0.82
66 | A5G A36G A52G | 1.73
67 | A68G U120A U130C | 0.89
68 | A11U A54U A82U A91G U97C A125G A140G | 0.01
69 | A54G A63U U120C A135G | 0.78

Row | Variant | self-cleavage
70 | U2C A4U C113U A116G U120C | 0.02
71 | A24C A56G U87C | 0.84
72 | A68G A82U A111U | 0.03
73 | A52G U70C A82U | 0.18
74 | U9C A54G A111G | 0.01
75 | A22G A91G A117G | 0.87
76 | A52G A59G U108C | 0
77 | U9C A52G A55G U97C U103C | 0.22
78 | A54G U87C U103C A111U | 0.03
79 | A5G A23G A55G A90G U122A | 1.29
80 | A56G U87C A95G | 0.75
81 | A36U U39A A118G | 2.15
82 | A22U A51G A59G A114G | 0.13
83 | A52G A54G A94G U100C A140G | 1.71
84 | U9C A68G A94G | 0.82
85 | U70C A118G U139C | 0.29
86 | U38C A66G U100C | 2.54
87 | A27G A67G A86G A116G | 0.7
88 | A33G A118G U120C | 0.11
89 | A94G C107A A126G | 0.01
90 | A30U C46U A54G U57A A89U A111G A116G | 0.03
91 | G7A G14A A94G | 1.17
92 | U2C A92G U102C | 0.86

Row | Variant | self-cleavage
93 | G29U U39C U131C A135G | 0.71
94 | U49G A68G A69G A117G | 1.23
95 | U43C A95G A111G A118G | 0.01
96 | A22G A62G A86G | 1.92
97 | A13G A82U A94U U132A | 0.28
98 | A22U A56G A98G | 0.88
99 | A11G U19C C76U A98U A126G | 0.03
100 | U39C A51G A86G A89G | 0.74
101 | A82U U87C A90G | 0.2
102 | U2A A92G U102C A126G | 1.56
103 | C40U A125G U127C | 0.23
104 | A59G G137U A140G | 1.02
105 | A69C A116G A126G | 1.37
106 | A24G A33G U70C A117G | 0.26
107 | A24C A27G U127C | 0.75
108 | A5G U49C U108C | 0
109 | U9C A56G C105A | 0.07
110 | U3C A63U G106U U131C | 0.02
111 | A13U A90G C101U A111U | 0.04
112 | A33G A59U A118G | 0.4
113 | A11G U87G A91G G115U U120C A126G | 0
114 | A5G A13G U108A | 0.24
115 | U12C A13G U43C A95G | 1.38

Row | Variant | self-cleavage
116 | U102C U108C A118U U132C | 0
117 | U26C A33U U49C A78G A98U | 0.26
118 | U43A A66G A126G | 0.77
119 | A30G U37C U132C | 1.76
120 | C35U A86G A92U A117G U124C | 0.65
121 | U2A A24G U26C | 0.74
122 | A68G A91G A110G | 0.14
123 | U39A U43C A59G A117G | 0.67
124 | U2A A33U G80A A118G | 0.28
125 | U26C A56G A92G A129G | 0.75
126 | A47U A129G U132C | 0.35
127 | A18G A59U C128U | 0.65
128 | U43G G44U A118G | 1.17
129 | U9A A67U U120C C128U | 0.32
130 | A89U A117G A118U | 1.66
131 | U3C U37C A96G U130C | 0.52
132 | A90G U100A U131C | 0.07
133 | U2A G20A A23G A24G | 0.09
134 | A27G A69G A89G U103C | 0.85
135 | G1A U9C A59U A90G | 1.83
136 | A5G A63G A64U A82U | 0.31
137 | U12C U38C A60G | 0.79
138 | U49A A51U A89G U100C | 1.76

Row | Variant | self-cleavage
139 | A24U A54G A95G A126G | 1.07
140 | A5G A30U U132C | 0
141 | A64U A69G U103C A114G G138A | 0.1
142 | A68G G74U U122C | 0.17
143 | A30G A52G U87C A111G A118U A126G | 0.01
144 | A36G A62G A89G | 0.91
145 | A62G A95U U130A | 1.1
146 | U2C U87C A129G | 1.36
147 | A11G A36G A86G U87C U100C | 1.41
148 | U37C A56C A78U A95G | 0.33
149 | A23G U49C A69G A118G A129U | 0.44
150 | U57A A89G U108C | 0
151 | A5G A51G A90G U122C | 1.52
152 | U38C A56G A110G | 0.25
153 | A5G U108C A135U | 0.04
154 | A82U U102C U108C U127C | 0
155 | U43A A55G A117G | 1.62
156 | A5G A24G U26C A59G U103C U132C | 0.25
157 | U43C G84C A114U | 0.01
158 | A4G G14A U37A U39A A68G A95G U122C | 1.66
159 | A22G A59G U120G U130C | 1.51
